Measurements taken from US20070077609A1 (STANFORD UNIVERSITY, published 2007).

Key:
[1] = target: T1, GFP^2-FRB fusion protein (FRB fused to the C-terminus of GFP^2) (human, UniProt P42345 2021-2113); test: BRET^2 time course in co-transfected 293T cells; 30 h, after 6 h with rapamycin
T1 construct: Expressed inside transfected cells; also called pGFP^2-FRB; GFP-F; not shown: mutant green fluorescent protein GFP^2 from bought pGFP^2-C3 vector (Perkin Elmer)
Protocol: (§1) FIG. 4D illustrates a chart showing dynamic nature of a BRET signal. 293T cells transfected with pFKBP12-hRluc and pGFP²-FRB plasmids in a 1:1 ratio were distributed in equal numbers in a 24 well plate. The dashed line represents the BRET² ratio over time, where transfected cells were maintained throughout with rapamycin (160 nM). The solid line represents the BRET² ratio over time, where rapamycin was added and withdrawn at different time points from the incubating media of the transfected cells. As shown by the cross-hatched zone on the X-axis marked as +R or −R, rapamycin was added to the experimental cells after first scanning at 24 hours. After 6 hours incubation another scan was performed (30 hours).
(§2) To elucidate the dynamic nature of the BRET system, 293T cells co-transfected with pFKBP12-hRluc and pGFP²-FRB were repeatedly imaged by adding and withdrawing rapamycin in succession at different time points from the incubating medium. As control, the same transfected cells were constantly maintained in rapamycin containing media. […] Once rapamycin is added in the medium, it takes about 40 hours to have the BRET² ratio come down to 0.17 in rapamycin free condition.

[2] = target: T1, GFP^2-FRB fusion protein (FRB fused to …); test: BRET^2 time course in co-transfected 293T cells; 24 h, before rapamycin was added
Protocol: as §1, §2

[3] = target: T1, GFP^2-FRB fusion protein (FRB fused to …); test: BRET^2 time course in co-transfected 293T cells; 78 h, 8 h after rapamycin was added again
Protocol: as §1, §2

[4] = target: T1, GFP^2-FRB fusion protein (FRB fused to …); test: BRET^2 time course in co-transfected 293T cells; 70 h, about 40 h after rapamycin was withdrawn
Protocol: as §1, §2

T1 sequence (P42345 2021-2113): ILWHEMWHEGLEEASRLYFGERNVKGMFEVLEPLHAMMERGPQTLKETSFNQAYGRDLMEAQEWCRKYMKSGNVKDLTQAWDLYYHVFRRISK

B1: FKBP12-RLUC fusion protein (FKBP12 fused to the N-terminus of hRluc) (other)
chain: [letters of about 100 residues not shown]MASKVYDPEQRKRMITGPQWWARCKQMNVLDSFINYYDSEKHAENAVIFLHGNAASSYLWRHVVPHIEPVARCIIPDLIGMGKSGKSGNGSYRLLDHYKYLTAWFELLNLPKKIIFVGHDWGACLAFHYSYEHQDKIKAIVHAESVVDVIESWDEWPDIEEDIALIKSEEGEKMVLENNFFVETMLPSKIMRKLEPEEFAAYLEPFKEKGEVRRPTLSWPREIPLVKGGKPDVVQIVRNYNAYLRASDDLPKMFIESDPGFFSNAIVEGAKKFPNTEFVKVKGLHFSQEDAPDEMGKYIKSFVERVLKNEQ
notes: Expressed inside transfected 293T, N2a or A375M cells; also called FKBP12-hRluc; pFKBP12-hRluc
- BRET^2 ratio [1]: 1.16
- BRET^2 ratio [2]: 0.29
- BRET^2 ratio [3]: 0.79
- BRET^2 ratio [4]: 0.17
